# Source: PubChem BioAssay AID686971 (National Center for Advancing Translational Sciences (NCATS), 2013)
# Among all 360,000 compounds or so, about 7,500 (2.1%) were called active. This list was built around the results that the source calls inconclusive (neither active nor inactive); the mix of calls is not that of the screen. Calls come from the whole dose curve; as a rule, active = well fitted cell-killing curve with a large enough effect; inconclusive = small, poorly fitted or top-dose-only effect, or effect the other way, or another doubt; inactive = no such curve, though single readings can be large or run the other way. Potencies of inconclusive entries are left out as doubtful fits.
# Assay: qHTS for induction of synthetic lethality in tumor cells producing 2HG: qHTS for the HT-1080-IDH1KD cell line;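 for activity, negative = toxicity: 0% = DMSO wells and -100% = cell-free medium wells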
# Conditions: HT-1080 IDH1 knockdown viability, ATP luminescence, 48 h; activity, negative = toxicity: at 46.1 µM (top of the series) unless noted
# Summary of the method: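 Using the IDH1-knockdown HT-1080 line run in the same batch and compound series as the NT line, viability after 48 h at 37 °C was determined by CellTiter-Glo luminescence and expressed as % activity.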
# Potency is the fitted concentration of half-maximal effect; tags give direction and shape of the fitted curve.
Compound,Potency,"activity, negative = toxicity"
O=c1c2cc(Br)ccc2nc(-c2cccc(Cl)c2)n1O,"inconclusive [cytotoxic, partial curve]",–
O=C(c1cc2nc(-c3ccco3)cc(C(F)(F)F)n2n1)N1CCN(c2ccc(F)cc2)CC1,"inconclusive [cytotoxic, single point]",–
CCOC(=O)N1CCN(S(=O)(=O)c2ccc(OC)c3ccccc23)CC1,"inconclusive [cytotoxic, single point]",–
CN1CCN(c2ccc(NC(=S)NC(=O)/C=C/c3ccco3)cc2)CC1,"inconclusive [cytotoxic, single point]",–
CCCC(C)(C)C(=O)N1CCC1(C)C(=O)NS(=O)(=O)c1ccc(Cl)cc1 (stereo unspecified),"inconclusive [rising, partial curve]",–
COc1cc(C)c(NC(=S)Nc2ccc(C)c(Cl)c2)cc1OC,inactive,–
Cc1cc(S(=O)(=O)Nc2ccc(C(=O)NCC(c3ccco3)N3CCCC3)cc2)ccc1F (stereo unspecified),inactive,–
O=C(CCCn1c(SCc2cccc([N+](=O)[O-])c2)nc2ccccc2c1=O)NCC1CCCO1 (stereo unspecified),"inconclusive [cytotoxic, single point]",–
O=C(CNC(c1ccccc1)c1ccccc1)Nc1ccccc1F,inactive,–
CCN1C(=O)C2(C(C#N)=C(N)Oc3c2c(C)nn3-c2ccccc2)c2ccccc21 (stereo unspecified),"inconclusive [cytotoxic, single point]",–
COCCNc1nc(NCCOc2ccccc2)c2sc(-c3ccccc3)cc2n1,active: 23.1 µM,–
CCOc1ccc(-c2nc(CN(Cc3ccccc3)C[C@@H]3CCC(=O)N3)c(C)o2)cc1,"inconclusive [cytotoxic, partial curve]",–
Cn1cc([C@]2(O)C(=O)Nc3ccc(OC(F)(F)F)cc32)c2ccccc21,"inconclusive [cytotoxic, single point]",–
CCC/C=C/c1ccc(CN2C(C(C)C)C(=O)N(Cc3cn(CC4CCCCC4)nn3)CCS2(=O)=O)cc1 (stereo unspecified),"inconclusive [cytotoxic, single point]",–
Cc1ccc(N=C2NC(=O)/C(=C/C=C/c3ccco3)S2)cc1C,"inconclusive [cytotoxic, single point]",–
Oc1cc(O)cc(-c2cc3ccc(O)cc3o2)c1,inactive,–
O=C(NCCc1ccc(Cl)cc1Cl)c1cc([N+](=O)[O-])c[nH]c1=O,"inconclusive [cytotoxic, single point]",–
CC(=O)Nc1cccc2cc(S(=O)(=O)O)ccc12,inactive,–
COc1ccccc1-c1noc2c1C(=O)N(Cc1cn(C3CCCC3)nn1)CC2,inactive,–
COc1ccc(/C=N/Nc2ccc([N+](=O)[O-])cc2)cc1O,"inconclusive [cytotoxic, single point]",–
COc1cccc(CN2C(=O)C3(C(C#N)=C(N)OC4=C3C(=O)CCC4)c3ccccc32)c1 (stereo unspecified),"inconclusive [cytotoxic, single point]",–
Cc1cc(F)ccc1S(=O)(=O)Nc1ccc(C(=O)N2CCCCC2)cc1,inactive,–

Compound,Potency,"activity, negative = toxicity"
CCOC(=O)C1=C(C)Nc2ccccc2N/C1=N\S(=O)(=O)c1cccc(Cl)c1,inactive,–
O=C(CSc1ccc2nnc(-c3ccc(Cl)cc3)n2n1)N1CCc2ccccc21,inactive,–
C/C=C1\NC(=O)[C@H](CC(N)=O)N(C)C(=O)C([C@@H](C)O)NC(=O)C(CCCc2ccc(OC)cc2)NC(=O)[C@H](C(C)C)NC(=O)/C(=C\C)NC(=O)[C@H](O)[C@@H](C[C@@H](O)CCCCCCC)NC(=O)[C@H](C)NC(=O)CN(C)C(=O)[C@H](CCC(N)=O)NC1=O (stereo partly specified),"inconclusive [cytotoxic, single point]",–
N/C(Cc1ccc([N+](=O)[O-])cc1)=N\OC(=O)c1ccc(Br)cc1,inactive,–
NNc1ncnc2c1cnn2-c1ccccc1,"inconclusive [cytotoxic, single point]",–
Cc1cc(NC(=O)NC2(C(F)(F)F)Oc3ccc(Cl)cc3O2)no1 (stereo unspecified),active: 10 µM,–
Cc1cccc(C)c1OCC(O)Cn1c2ccccc2c2ccccc21 (stereo unspecified),"inconclusive [cytotoxic, single point]",–
O=C(COc1ccc(Cl)cc1)NCc1nnc(SCC(=O)NC2CCCCC2)o1,"inconclusive [cytotoxic, single point]",–
CC(CC(=O)NCc1ccco1)S(=O)(=O)c1ccc2c(c1)CCN2C(=O)C1CC1 (stereo unspecified),"inconclusive [cytotoxic, single point]",–
Cc1c(O)ccc2c(CN3CCN(C/C=C/c4ccccc4)CC3)cc(=O)oc12,"inconclusive [cytotoxic, partial curve]",–
Cc1noc(C)c1S(=O)(=O)N1CCC(C(=O)Nc2ccc(OC(F)(F)F)cc2)CC1,"inconclusive [cytotoxic, partial curve]",–
COc1ccccc1-c1ccc(/C=C2\C=CC(=O)O2)o1,"inconclusive [cytotoxic, single point]",–
CN(C(=O)/C(N=Nc1cccc(C(F)(F)F)c1)=C(\O)C(F)(F)F)c1ccccc1,"inconclusive [cytotoxic, single point]",–
COc1cc2c(c(OC)c1OC)-c1ccc(OC)c(=O)cc1[C@@H](NC(C)=O)CC2,"inconclusive [cytotoxic, full curve]",–
ClC(Cl)(Cl)c1nc2ccccc2n2nncc12,active: 7.31 µM,–
Cc1ccsc1/C=N/NC(=S)NCCc1ccccc1,–,inconclusive: 31.3%
CC(C)Oc1cccc(C(=O)C2CCCN(C(=O)c3ccc4c(c3)OCO4)C2)c1 (stereo unspecified),inactive,–
Cc1noc(C)c1S(=O)(=O)Nc1ccc2c(c1)C(=O)N([C@H](C)CO)C[C@H](C)[C@H](CN(C)S(=O)(=O)c1ccc(Cl)cc1)OCCCC[C@@H](C)O2,"inconclusive [cytotoxic, single point]",–
O=C(Nc1ccc(Cl)cc1)N1CCN(c2ccc3nnc(-c4ccc(F)cc4)n3n2)CC1,"inconclusive [cytotoxic, single point]",–
COc1ccc(N2CCN(C(=O)c3sc4ncn(CC(=O)N5CCCCC5)c(=O)c4c3C)CC2)cc1,inactive,–
O=C(CNC(=O)c1ccccc1)N/N=C/c1ccc([N+](=O)[O-])o1,"inconclusive [cytotoxic, single point]",–
CCOc1cc(C2/C(=C(/O)c3ccc(OC(C)C)cc3)C(=O)C(=O)N2CCCOC)ccc1O (stereo unspecified),inactive,–

Compound,Potency,"activity, negative = toxicity"
Cc1ccc(C(=O)NNC(=S)NC(=O)c2ccc(Cl)cc2)cc1,"inconclusive [cytotoxic, single point]",–
CC1(C)CN(C(Cc2ccccc2)C(N)=O)C1=O (stereo unspecified),inactive,–
CCOc1cc(CNCC(C)C)c(Cl)cc1OCC(=O)Nc1ccccc1,inactive,–
CCC(C(=O)NCc1ccco1)N(C(=O)CNS(=O)(=O)c1ccccc1)c1ccccc1C (stereo unspecified),inactive,–
COc1ccc(CC(N)c2csc(NC(=O)c3cc(C(C)(C)C)nn3Cc3ccccc3)n2)cc1 (stereo unspecified),active: 20.6 µM,–
O=C(OCCCN=C1NS(=O)(=O)c2ccccc21)c1cccs1,"inconclusive [rising, single point]",–
Cc1cccc(-n2c(O)c(/C=N/NC(=O)c3ccccc3Cl)c3ccccc3c2=O)n1,"inconclusive [cytotoxic, single point]",–
O=C(NN=C1CCCC1)c1[nH]c2ccc(Cl)cc2c1-c1ccccc1,active: 11.6 µM,–
COc1ccccc1CCn1cnc(-c2ccc(OC)c(OC)c2)c1C(C)C,"inconclusive [cytotoxic, single point]",–
Cc1ccc(Nc2cc(C(=O)NCCCN3CCOCC3)c3ccccc3n2)cc1C,"inconclusive [cytotoxic, single point]",–
COc1ccc(NC(=O)CCCN2C(=O)C3CC=CCC3C2=O)cc1 (stereo unspecified),"inconclusive [cytotoxic, partial curve, poor fit]",–
COc1ccc(-c2cnc3c(NC=O)cc(-c4ccccc4OC)cn23)cc1OC,active: 0.184 µM,–
CCN(CC)c1ccc(/C=N/NC(=O)c2cccc(S(=O)(=O)Nc3ccccc3OC)c2)cc1,"inconclusive [cytotoxic, single point]",–
CC1=Nc2ccccc2N=C(NC(=O)CSC(=S)N2CCN(C)CC2)C1c1ccccc1 (stereo unspecified),inactive,–
CSc1nsc2nc(=O)c(/C=C3\C(C)=Nc4ccc(C)cc43)c(N)n12,"inconclusive [cytotoxic, partial curve]",–
O=C(/C=C/c1ccc(-c2ccccc2[N+](=O)[O-])o1)c1ccco1,"inconclusive [cytotoxic, single point]",–
COC(=O)[C@@]12C[C@@H](CC(=O)NCCC(C)C)C(=O)N(Cc3ccc4c(c3)OCO4)C1=CCC(C)(C)C2,"inconclusive [cytotoxic, single point]",–
Cc1ccc(/C=C/C(=O)c2cc(Br)ccc2OC(=O)c2ccco2)cc1,"inconclusive [cytotoxic, single point]",–
O=C(c1ccc(OCCN2CCCCC2)cc1)c1c(-c2ccc(O)cc2)sc2cc(O)ccc12,active: 20.6 µM,–
COc1ccc(OC)c(NC(=O)c2cnc(Nc3ccccc3OC)c3ccccc23)c1,"inconclusive [cytotoxic, partial curve]",–
O=C1c2ccccc2-c2n[nH]c3cccc1c23,"inconclusive [cytotoxic, single point]",–
C=CCC[C@@H](Cc1ccc(F)cc1)C(=O)OC[C@H](Cc1c[nH]c2ccccc12)NC(=O)[C@@H](CC=C)CC(=O)N(CCO)Cc1ccccc1,"inconclusive [cytotoxic, single point]",–
